# Reference: PubChem BioAssay AID588453 (National Center for Advancing Translational Sciences (NCATS), 2011)
# Out of some 390,000 compounds screened, about 4,000 (1%) were called active. The shares of active, inactive and inconclusive entries below differ from those in the screen. Calls come from the whole dose curve; as a rule, active = well fitted inhibition curve with a large enough effect; inconclusive = small, poorly fitted or top-dose-only effect; inactive = no such curve, though single readings can be large or run the other way. Potencies beside an inconclusive call are fits to weak or partial responses and may not hold up.
# Biological target: Thioredoxin reductase 1, cytoplasmic (Rattus norvegicus) (UniProt O89049)
# UniProt O89049, sequence (O89049 whole entry, looked up): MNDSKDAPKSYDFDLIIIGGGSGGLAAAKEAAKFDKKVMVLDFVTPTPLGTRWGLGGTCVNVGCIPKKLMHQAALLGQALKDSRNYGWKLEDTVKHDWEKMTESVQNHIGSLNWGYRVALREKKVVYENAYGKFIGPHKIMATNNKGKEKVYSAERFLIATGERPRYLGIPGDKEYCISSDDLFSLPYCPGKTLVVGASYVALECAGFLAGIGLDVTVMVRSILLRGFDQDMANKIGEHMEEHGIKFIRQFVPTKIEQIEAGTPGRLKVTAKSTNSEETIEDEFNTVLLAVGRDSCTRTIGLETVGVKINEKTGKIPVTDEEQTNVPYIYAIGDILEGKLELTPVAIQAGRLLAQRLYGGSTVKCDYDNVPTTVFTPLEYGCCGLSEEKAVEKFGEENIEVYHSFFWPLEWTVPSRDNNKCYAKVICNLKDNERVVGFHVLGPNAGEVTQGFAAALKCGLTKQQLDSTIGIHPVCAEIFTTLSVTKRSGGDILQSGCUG
# Experiment: qHTS Assay for Inhibitors of Mammalian Selenoprotein Thioredoxin Reductase 1 (TrxR1): qHTS; note: nearly all actives have a fitted effect of over 65% in size
# Conditions: recombinant rTrxR1, NADPH fluorescence consumption, selenite substrate; series mostly up to 114 µM
# Outline: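 Rat TrxR1 (90 nM in the dispensed reagent) was pre-reduced with 400 uM NADPH for 5 min at room temperature, then incubated with compound for 15 min. After 400 uM selenite was added, NADPH fluorescence (Ex 340/Em 450 nm) was followed for 8 min.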
# Potency is the fitted concentration of half-maximal effect; tags give direction and shape of the fitted curve.
row,SMILES,Potency
1,CC1(C)CC(=O)C(C(C2=C(O)CC(C)(C)CC2=O)c2ccco2)C(=O)C1 (stereo not drawn),"inconclusive: 15.8 µM [inhibitor, partial curve, poor fit]"
2,Cn1cnc([N+](=O)[O-])c1S(=O)(=O)Oc1ccc(Cl)cc1,"inconclusive: 0.316 µM [inhibitor, full curve, poor fit]"
3,C=C(C)Cn1c(SCC(=O)NCc2ccco2)nc2sc3c(c2c1=O)CCC3,"inconclusive: 3.16 µM [inhibitor, partial curve, poor fit]"
4,O=C(Nc1nc2n(n1)C(c1ccccc1)C=C(c1ccc(Cl)cc1)N2)c1ccco1 (stereo not drawn),"inconclusive: 56.2 µM [inhibitor, partial curve]"
5,CSc1nnc(Cn2c(=O)sc3ccccc32)n1CCc1ccccc1,inactive
6,Fc1ccc(N=C2NN=C(c3cc(F)ccc3F)CS2)cc1,inactive
7,Fc1ccc(NC(=S)NCc2ccccc2)cc1,"inconclusive: 35.5 µM [inhibitor, partial curve]"
8,CC(C)OP(=O)(OC(C)C)C1(O)C(=O)Nc2ccccc21 (stereo not drawn),"inconclusive: 1 µM [inhibitor, single point]"
9,CCCOc1ccc(C2c3c(oc4ccccc4c3=O)C(=O)N2CCCN2CCOCC2)cc1 (stereo not drawn),"inconclusive: 22.4 µM [inhibitor, partial curve]"
10,O=C(/C=C/c1cccs1)Nc1sc2c(c1C(=O)O)CCCC2,inactive
11,CC(Oc1ccc2c(c1)oc(=O)c1ccccc12)C(=O)NCCN1CCOCC1 (stereo not drawn),"inconclusive: 11.2 µM [inhibitor, partial curve, poor fit]"
12,C/C(CC(=O)NCCCN1CCOCC1)=N\NC(=O)COc1ccc(Cl)cc1,"inconclusive: 39.8 µM [inhibitor, partial curve]"
13,CSc1nnc(-c2ccc(S(=O)(=O)N3CCCC3)cc2)n1C,"inconclusive: 39.8 µM [inhibitor, single point]"
14,COc1ccccc1[C@H]1C(c2cccc(Cl)c2)=NN(c2ccccc2)[C@@H]1CO,"inconclusive: 7.08 µM [inhibitor, full curve, poor fit]"
15,COc1ccc(NC(=O)CSc2cn(CCNC(=O)c3c(F)cccc3F)c3ccccc23)cc1,inactive
16,Cc1occc1-c1nnc(SCC(=O)N2CCc3ccccc32)o1,"inconclusive: 39.8 µM [inhibitor, single point]"
17,Cc1ccc(N=Nc2ccc(N)cc2C)c(S(N)(=O)=O)c1,inactive
18,CCc1ccc(NC(=O)C2C3C=CC(C4CC34)C2C(=O)O)cc1 (stereo not drawn),inactive
19,Cn1cccc1/C=N/n1c(-c2ccccc2)n[nH]c1=S,"inconclusive: 56.2 µM [inhibitor, single point]"
20,CCOC(=O)c1ccc(CS(=O)c2ccc(Cl)cc2)o1 (stereo not drawn),"inconclusive: 31.6 µM [inhibitor, single point]"
21,CCCN1C/C(=C/c2ccc3c(c2)OCO3)C(=O)/C(=C/c2ccc3c(c2)OCO3)C1,"inconclusive: 20 µM [inhibitor, partial curve, poor fit]"
22,COc1ccc(/C=N/NC(=O)c2ccc3ccccc3c2)cc1OS(=O)(=O)c1ccc(NC(C)=O)cc1,inactive
23,Cc1ccc(S(=O)(=O)Cn2nnnc2C(C(C)C)N2CCN(C(=O)c3ccco3)CC2)cc1 (stereo not drawn),"inconclusive: 25.1 µM [inhibitor, partial curve, poor fit]"

row,SMILES,Potency
1,CCOC(=O)c1sc(=S)n(-c2cc(F)ccc2F)c1N,inactive
2,CC(=O)c1ccccc1OC(=O)c1ccc([N+](=O)[O-])o1,"inconclusive: 14.1 µM [inhibitor, partial curve, poor fit]"
3,COc1ccc(-c2cc(C(=O)O)no2)cc1,"inconclusive: 10 µM [inhibitor, partial curve, poor fit]"
4,O=C1C(=O)N(CCCN2CCOCC2)C(c2ccc([N+](=O)[O-])cc2)/C1=C(/O)c1ccc2c(c1)OCO2 (stereo not drawn),"inconclusive: 79.4 µM [inhibitor, partial curve]"
5,CCOC(=O)C(Sc1ncc(C#N)c(N)n1)C(C)C (stereo not drawn),"inconclusive: 39.8 µM [inhibitor, single point]"
6,N#C/C(=C\c1cccn1-c1ccccc1)C(=O)NC1CCCCC1,"inconclusive: 89.1 µM [inhibitor, single point]"
7,Cc1cccc(OCC(=O)NNC(=O)CCCCC(=O)NNC(=O)COc2cccc(C)c2)c1,inactive
8,COc1cccc(C2CCCN2Cc2nc(-c3sccc3C)oc2C)c1 (stereo not drawn),"inconclusive: 63.1 µM [inhibitor, single point]"
9,COC(=O)c1[nH]c(C)c(/C(O)=C2\C(=O)C(=O)N(CCN3CCOCC3)C2c2cccnc2)c1C (stereo not drawn),"inconclusive: 35.5 µM [inhibitor, full curve]"
10,C[C@@H]1CN(S(=O)C(C)(C)C)[C@@H](CCO)/C1=C\CCO (stereo partly drawn),"inconclusive: 50.1 µM [inhibitor, partial curve, poor fit]"
11,CC(=O)NC(CCS(C)(=O)=O)C(=O)Nc1cccc(C(C)=O)c1 (stereo not drawn),"inconclusive: 89.1 µM [inhibitor, single point]"
12,CCCCOc1cccc(C2/C(=C(/O)c3ccc4c(c3)CC(C)O4)C(=O)C(=O)N2CCN2CCOCC2)c1 (stereo not drawn),"inconclusive: 79.4 µM [inhibitor, single point]"
13,O=C(CCl)N(Cc1ccccc1)c1ccccc1,"inconclusive: 12.6 µM [inhibitor, full curve]"
14,S=c1[nH]nc(-c2cccnc2)n1/N=C/C=C/c1ccccc1,"inconclusive: 50.1 µM [inhibitor, partial curve]"
15,CC1(CC(=O)N/N=C/c2cc(Br)c(O)cc2O)OCCO1,inactive
16,COc1ccc(NCc2cccn2-c2nnc(N3CCOCC3)s2)cc1OC,"inconclusive: 56.2 µM [inhibitor, single point]"
17,NC(=S)N/N=C/c1ccc(-c2cc(Cl)ccc2Cl)o1,"inconclusive: 17.8 µM [inhibitor, single point]"
18,COc1ccccc1NC(=O)/C=C\c1ccco1,active: 3.55 µM
19,COC(=O)CCC(=O)OC1(C)C(=O)C=C2C=C(c3ccsc3)OC=C2C1=O (stereo not drawn),"inconclusive: 15.8 µM [inhibitor, partial curve, poor fit]"
20,O=C(Nc1nccs1)c1ccccn1,inactive
21,Cc1ccc2cc(CN(CCN3CCOCC3)Cc3nnnn3Cc3ccco3)c(=O)[nH]c2c1C,inactive
22,O=C(O)c1ccc(-c2ccc(/C=C3\NC(=O)N(Cc4ccc(Cl)cc4)C3=O)o2)cc1Cl,"inconclusive: 22.4 µM [inhibitor, single point]"
23,CC(C)c1cc(C(=O)NCc2ccc(F)cc2)no1,inactive

row,SMILES,Potency
1,C=CCN1C(=O)c2ccc(C(=O)N(C)Cc3ccc(C)o3)cc2C1=O,"inconclusive: 39.8 µM [inhibitor, partial curve, poor fit]"
2,O=C(NNC(=S)Nc1cccc(Cl)c1)c1ccccc1,"inconclusive: 15.8 µM [inhibitor, partial curve]"
3,COc1ccccc1NC(=O)c1sc2nc(-c3ccco3)ccc2c1N,inactive
4,COc1ccc(C)cc1NC(=O)C1CCC(CNS(=O)(=O)c2ccc3c(c2)CCCC(=O)N3)CC1 (stereo not drawn),inactive
5,COc1cc2[nH]c(=O)n(CCCCCC(=O)NCCCN3CCCC3=O)c(=O)c2cc1OC,inactive
6,O=C(CSc1oc(-c2ccco2)nc1S(=O)(=O)c1ccc(F)cc1)NCC1CCCO1 (stereo not drawn),active: 15.8 µM
7,COCCn1nnnc1C(c1cc2ccc(OC)cc2[nH]c1=O)N1CCc2ccccc2C1 (stereo not drawn),"inconclusive: 12.6 µM [inhibitor, partial curve]"
8,CC(=O)c1cccc(NC(=O)CCS(=O)(=O)c2ccc3c(c2)n(C)c(=O)c(=O)n3C)c1,"inconclusive: 44.7 µM [inhibitor, partial curve, poor fit]"
9,O=C(CCn1c(=O)c2ccccc2n(Cc2cc(=O)n3ccccc3n2)c1=O)NCc1ccco1,"inconclusive: 79.4 µM [inhibitor, single point]"
10,O=C(Nc1ccccc1C(F)(F)F)C1(S(=O)(=O)c2ccc(Cl)cc2)CC1,inactive
11,O=C(c1ccco1)N1CCN(C(=O)c2ccc(-c3cccc(C(F)(F)F)c3)o2)CC1,"inconclusive: 22.4 µM [inhibitor, single point]"
12,COc1ccc(CN2C(=NC(=O)CCC3CCCC3)SC3CS(=O)(=O)CC32)cc1 (stereo not drawn),inactive
13,COc1ccc(CN2CCNC(=O)C2CC(=O)NCCc2cnccn2)cc1C (stereo not drawn),"inconclusive: 70.8 µM [inhibitor, partial curve, poor fit]"
14,COc1ccc(C(=O)/C(=C\c2ccco2)N2C=CC=CC2=C(C#N)C#N)cc1,active: 8.91 µM
15,O=C(CCn1nc(-c2ccc(Cl)cc2)ccc1=O)NCCCN1CCCCCC1,"inconclusive: 70.8 µM [inhibitor, single point]"
16,Cc1c(C(C)(C)C)c(C=S)n2ccccc12,"inconclusive: 12.6 µM [inhibitor, full curve]"
17,Cc1ccc(C(=O)c2cn(Cc3cc(C)ccc3C)c3nc(C)ccc3c2=O)cc1,inactive
18,Cc1cc(C)cc(N2C(=O)N(c3ccccc3C)C3CS(=O)(=O)CC32)c1 (stereo not drawn),inactive
19,Cc1ccc(S(=O)(=O)CCC(=O)Nc2nc(-c3ccncc3)cs2)cc1,inactive
20,CC(CCc1ccccc1)NC(=O)c1ccccc1Cl (stereo not drawn),"inconclusive: 89.1 µM [inhibitor, single point]"
21,Cc1cc(Nc2c(C)n(C)n(-c3ccccc3)c2=O)n2c(nc3cc(F)c(F)cc32)c1C#N,"inconclusive: 35.5 µM [inhibitor, partial curve]"
22,S=c1sc2c(Cl)ncnc2n1-c1ccccc1,active: 15.8 µM
